Our source for the self-cleavage values is the RNAGym collection of RNA variant scans (doi:10.7554/elife.90254).

Read counts are not given, so values of variants with three or more changes are uncertain.

First the molecules themselves.
B1: LINE1-mini (parent)
chain: GGCAGAGCUCAACACAGCGUGGCAAAGUGGCUGUGGCUAGACUGCC

The variants in the data set derive from B1. Description: self-cleavage, relative activity (ratio to wild type); higher = more cleavage; in vitro, sequencing; the parent is a self-cleaving ribozyme.
Regarding GGCAGCGCUCAACACAGGGUGGCAAAGUGGCUGUGCCUAGACUGCC [A6C C18G G36C], the self-cleavage was determined as 0.06.

As for GGCAGCCCUCAGCACAGCGUGUCAAAGUGGCGGUGGCUACACUGCC [A6C G7C A12G G22U U32G G40C], the self-cleavage was 0.01.

For the variant GGCAGCGCUGAACACAGCCUAGCAAAGUGGAUGUGGCUAGACUGCC [A6C C10G G19C G21A C31A], the self-cleavage was 0.03.

Consider GGCAGCGCUUAACACAGCGUGGCAAAGUGUCUGUGGCUAGAGUGCC [A6C C10U G30U C42G], for which the self-cleavage was determined as 0.01.

As for GGCAGCGCUCAAUACAGCGUGGCAAAGUGGCUGUGACUAGACUGCC [A6C C13U G36A], the self-cleavage turned out to be 0.09.

Take GGCAGCGCUCAACACAGAGCGGCAAAGUUGCUAUGGCUAGACUGCC [A6C C18A U20C G29U G33A]: the self-cleavage was determined as 0.01.

On to GGCAGCUCUCAACACAGCGUGGCAAAUUGGCUGUGCCUAGACUGCC [A6C G7U G27U G36C], for which the self-cleavage turned out to be 0.03.

Regarding GGCAGCGCUUAACUCAGCGUGGCAAAGUGGCUGUGGCUAGACUGCC [A6C C10U A14U], the self-cleavage came to 0.17.

For the variant GGCAGCGCUUAACACAGCGUGGCAAAGUUGCUGAGGCUAGGCUGCC [A6C C10U G29U U34A A41G], the self-cleavage is 0.05.

On to GGCAGCGCUCAACACAGACUGGCAAAGUGGCUGUAGCUCGACUGCC [A6C C18A G19C G35A A39C], for which the self-cleavage was found to be 0.1.

Take GGCAGCAAUCAACACAGCGUGGCACUGUGGCUGUCGCUAGCGUGCC [A6C G7A C8A A25C A26U G35C A41C C42G]: the self-cleavage was found to be 0.07.

Regarding GGCAGCGCUCAACACAGGGUGGCAAACUGGCUGGGGCUAGACUGCC [A6C C18G G27C U34G], the self-cleavage stood at 0.03.

GGCAGCCUUCAACACAGCGUGGCAAAGGGGCUGUGGCUAGACUGCC [A6C G7C C8U U28G]: the self-cleavage was determined as 0.01.

On to GGCAGCGCUCAACAGAGCGUGGCAAAGUGUCUGUGGGUAGACUGCU [A6C C15G G30U C37G C46U], for which the self-cleavage worked out at 0.01.

In the case of GGCAGCGCUUAGCAGAGCGUGGCAAAGUGGCUGUGGCUAGACUGCC [A6C C10U A12G C15G], the self-cleavage turned out to be 0.03.

Take GGCAGCUCUCAAAACAGCGUGGCAAAGUGUCUGUGGCUAGACUGCC [A6C G7U C13A G30U]: the self-cleavage was 0.07.

As to GGCAGCGCUCAACAAAGCGUGACAAAGUGGCUGUGGCUAGACUGCC [A6C C15A G22A], the self-cleavage turned out to be 0.03.

As for GGCAGCGCUCAACAAAGCUUGGCAAAGUGGCAGUGGCUAGAUUGCC [A6C C15A G19U U32A C42U], the self-cleavage is 0.06.

For the variant GGCAGCGCUUAACACAGCGCGGCAAAGUGGCUGUGGCUAGACUGCC [A6C C10U U20C], the self-cleavage came to 0.08.

GGCAGCGCUCAAUACAGUAUGGCAAAGUGGCUGUGGCUAGACUGCC [A6C C13U C18U G19A]: the self-cleavage was found to be 0.06.

Consider GGCAGCGCUCAACACAGCGUGGCAAAGUGGCUGUGGGUAGACUGCA [A6C C37G C46A], for which the self-cleavage was determined as 0.01.

For the variant GGCAGCGCUCAAGACAGCGUGGCAAAGUGCCUGUGGCUAUGCUGCC [A6C C13G G30C G40U A41G], the self-cleavage was found to be 0.02.

Consider GGCAGCGCUCAACAAAGCGUGGCGAAGUGGCUGUGGUUAGACUGUC [A6C C15A A24G C37U C45U], for which the self-cleavage came to 0.26.

For GGCAGCGCUCAAAACAGCGUGGCAAAUUGGCUGUGGCUAUACUGCC [A6C C13A G27U G40U], the self-cleavage was 0.06.

As for GGCAGCGCUCAACACAGUGUGGCAAAGUGGCUGUGGCUAGGCUGCC [A6C C18U A41G], the self-cleavage is 1.08.

With GGCAGCGCUCAACAUGGCGUCGCAAAGUGGCUGUGGCUAGUCUGCC [A6C C15U A16G G21C A41U], the self-cleavage amounted to 0.02.

As to GGCAGCGCUUAACACAGCAUGGCAAUGUGGCUGUGGCUAGUCUGCC [A6C C10U G19A A26U A41U], the self-cleavage amounted to 0.03.

With GGCAGCGCUCAACAUACCGUUGAAAAGUGGCUGUGGCUAGACUGCC [A6C C15U G17C G21U C23A], the self-cleavage was found to be 0.1.

On to GGCAGCUCUAAACACACCGCGGCAAAGUGACUGUGUCUAGACUGCC [A6C G7U C10A G17C U20C G30A G36U], for which the self-cleavage was 0.03.

Take GGCAGCUCUCAACAAAGCGUGGCAAAGUGGCUUUAGCUAGACUGCC [A6C G7U C15A G33U G35A]: the self-cleavage came out at 0.07.

For the variant GGCAGCAGUCAACACAGCGAGGCAAAGUGGCUGUGGCUCGACUGCC [A6C G7A C8G U20A A39C], the self-cleavage came to 0.03.

As for GGCAGCGCUCAACACAGCGUGGAAAAGUGGCUUUGGCUAGACUGCC [A6C C23A G33U], the self-cleavage was 0.06.

Consider GGCAGCGCUCAACACAGCGUGGAAAAGUGGCUGUGGAUGGACUGGC [A6C C23A C37A A39G C45G], for which the self-cleavage was found to be 0.13.

In the case of GGCAGCGCUCAACACAGCGUGGCAAAGUGGACGUAGAUAGACUGCC [A6C C31A U32C G35A C37A], the self-cleavage worked out at 0.06.

GGCAGCGCUCAACAUAGCGUGGCAAAGUGGCUGUAGCUAGACUGCC [A6C C15U G35A]: the self-cleavage stood at 0.03.

For the variant GGCAGCGCUCAACAUAGCGUGGCACAGUGGCUGUGGCUAGACUGCC [A6C C15U A25C], the self-cleavage is 0.16.

Take GGCAGCGCUCAACAUAGCGUGGCAUAGUGGCUGUGGCUAGACUGCC [A6C C15U A25U]: the self-cleavage is 1.73.

GGCAGCGCUCAACACAGCGUGGUAAAGUGGCUGUGGCUAGUCUGCC [A6C C23U A41U]: the self-cleavage was determined as 0.11.

As for GGCAGCGCUCAACACAGCGUGGUAAAGUGGCUGUGGCUAUACUGCC [A6C C23U G40U], the self-cleavage came to 0.27.

As for GGCAGCUCUUAACACAGCGUGGCAAAGUGGCUGUGGCUAGACUGCC [A6C G7U C10U], the self-cleavage is 0.05.

In the case of GGCAGCACUCAACACAGCGUGGCAAAGUGGCUGUGGCGAGACUGCC [A6C G7A U38G], the self-cleavage amounted to 0.01.

On to GGCAGCGCUCAACACAGUGUGGGAAAGUGGCUGUGGCUAGACUGCC [A6C C18U C23G], for which the self-cleavage was found to be 0.9.

On to GGCAGCUCUCAACACAGCGUGGCAAAGUGGCUGUGACUAGACUGCC [A6C G7U G36A], for which the self-cleavage stood at 0.05.

GGCAGCGCUGAACACAGCGUGGCAAAGUGGCUGUAGCUAGACUGCC [A6C C10G G35A]: the self-cleavage came to 0.02.

With GGCAGCCCUCAAUACAGCGUGGCAAAGUUGCUGUGGCUAGACUGCC [A6C G7C C13U G29U], the self-cleavage turned out to be 0.74.

For the variant GGCAGCGCUCAACAUAGCGUGGAAAAGUGACUGUGGCUAGACUGCC [A6C C15U C23A G30A], the self-cleavage was 0.5.

GGCAGCGCUUAUCACAGCGUUGCAAGGUGGCUGUAGCUAGACUGCC [A6C C10U A12U G21U A26G G35A]: the self-cleavage is 0.02.

GGCAGCGCUCAACACAGCGUGGCAAAGUGGGUGGGGCUAGACUGCC [A6C C31G U34G]: the self-cleavage stood at 0.06.

Turning to GGCAGCGCUUAACACAGCGUGUCAAAGUGGCUGUGGCUAGACUGCC [A6C C10U G22U], the self-cleavage was 0.03.

Regarding GGCAGCUCUCAACACAGCGUGGCAUAGUGGCUGUGCCUAGACUGCC [A6C G7U A25U G36C], the self-cleavage amounted to 0.1.

For the variant GGCAGCGCUCAAUACAGCGUGGCAAAGUGGGUGUGGCGAGACUGCC [A6C C13U C31G U38G], the self-cleavage worked out at 0.18.

GGCAGCCCUCAAGACAGCGUGGCAAAGUGGCUGUGGCUAGACUCCC [A6C G7C C13G G44C]: the self-cleavage is 0.13.

In the case of GGCAGCGCUCAACAAACCGUGGCAAAGUGGCUGUGGCUAGACUGCC [A6C C15A G17C], the self-cleavage came out at 0.06.

In the case of GGCAGCGCUCAACACAGCGUGGAAAAGUGGCUGUGGCUAGACAGCC [A6C C23A U43A], the self-cleavage is 0.13.

GGCAGCGCUCAAAACAGCGUGUCAAAGUGGGAGUGCCUAGACUGAC [A6C C13A G22U C31G U32A G36C C45A]: the self-cleavage was determined as 0.01.

For the variant GGCAGCGCUCAAAACAGCGUGGCAAAGUGGCUGUGGCUAGACUACC [A6C C13A G44A], the self-cleavage was determined as 0.04.
